Assay results as given in paper PMC4336329 (PLoS ONE, 2015).
In all, about 310,000 compounds went through this assay and about 14,000 (4.5%) showed an effect of 50% or more. The effect is printed as a negative number. Some of the results follow.

Target: human ether-à-go-go-related gene (hERG) potassium channel (human, UniProt Q12809)
Experiment: primary screen, population patch clamp on CHO cells stably expressing hERG
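Note: peak tail current of the secondary pulse compared with the same well before compound.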

Chain of human ether-à-go-go-related gene (hERG) potassium channel (Q12809 whole entry, looked up): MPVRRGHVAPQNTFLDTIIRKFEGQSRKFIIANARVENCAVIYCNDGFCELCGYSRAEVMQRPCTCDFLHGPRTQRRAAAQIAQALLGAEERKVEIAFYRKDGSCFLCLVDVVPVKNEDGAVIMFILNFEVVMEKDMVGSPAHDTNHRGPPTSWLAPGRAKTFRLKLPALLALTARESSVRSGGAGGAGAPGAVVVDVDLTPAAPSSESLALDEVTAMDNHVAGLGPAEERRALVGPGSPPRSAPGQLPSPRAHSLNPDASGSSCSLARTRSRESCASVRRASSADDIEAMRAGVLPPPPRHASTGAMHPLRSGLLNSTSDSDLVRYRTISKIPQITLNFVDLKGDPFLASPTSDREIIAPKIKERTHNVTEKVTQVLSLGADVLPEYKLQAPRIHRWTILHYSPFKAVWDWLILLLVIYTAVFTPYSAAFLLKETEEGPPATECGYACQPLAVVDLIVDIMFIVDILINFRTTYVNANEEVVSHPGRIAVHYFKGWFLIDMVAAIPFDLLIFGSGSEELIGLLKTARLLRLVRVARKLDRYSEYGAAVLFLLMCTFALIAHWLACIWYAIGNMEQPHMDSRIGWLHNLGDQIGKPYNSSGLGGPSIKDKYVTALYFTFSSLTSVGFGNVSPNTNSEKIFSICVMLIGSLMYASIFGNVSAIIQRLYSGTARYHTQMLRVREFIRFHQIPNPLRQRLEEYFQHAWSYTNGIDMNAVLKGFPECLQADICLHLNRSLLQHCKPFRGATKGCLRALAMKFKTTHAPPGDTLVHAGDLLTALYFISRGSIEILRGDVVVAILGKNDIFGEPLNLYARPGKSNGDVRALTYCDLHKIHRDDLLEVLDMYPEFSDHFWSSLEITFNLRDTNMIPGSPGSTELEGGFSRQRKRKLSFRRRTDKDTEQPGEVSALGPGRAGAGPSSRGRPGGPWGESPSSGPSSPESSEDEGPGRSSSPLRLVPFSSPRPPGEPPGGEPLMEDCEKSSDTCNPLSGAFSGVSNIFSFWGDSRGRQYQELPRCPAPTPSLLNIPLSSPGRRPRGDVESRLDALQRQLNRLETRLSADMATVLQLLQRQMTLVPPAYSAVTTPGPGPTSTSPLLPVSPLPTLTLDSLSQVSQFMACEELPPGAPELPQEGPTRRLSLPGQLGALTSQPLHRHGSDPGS

In order of falling “hERG current change (%, negative = inhibition) at 10uM” value:
1. O=C(O)[C@H]1NC[C@H]2C[C@H]21  24.2%
2. Cc1ccc(NS(=O)(=O)c2ccc(C)c(NC(=O)COc3ccc4ccccc4c3)c2)c(C)c1  20.7%
3. Cc1ccc(CC(=O)Nc2ccc(S(=O)(=O)Nc3ncccn3)cc2)cc1  19.9%
4. O=C(COC(=O)CNC(=O)c1ccccc1Cl)Nc1ccccc1Cl  17.1%
5. COc1cccc2cc(C(=O)CS(=O)(=O)c3ccc(C(C)(C)C)cc3)c(=O)oc12  17.1%
6. O=C(CSc1ncn[nH]1)NCCc1ccc(Cl)cc1Cl  16.8%
7. Cc1sc2ncnc(SCC(=O)N(C(C)C)C(C)C)c2c1C  13.4%
8. CC(=O)c1ccc(N2CCN(C(=O)c3ccc(Cl)c(NC4=NC5CS(=O)(=O)CC5S4)c3)CC2)cc1 (stereo not shown)  12%
9. CC/C(C)=N/NC(=S)NCc1ccco1  11.9%
10. S=c1[nH]c2ccc(Cl)cc2[nH]1  9.34%
11. Cc1ccccc1C(=O)O/N=C(\N)c1ccccc1  9.07%
12. O=C(O)CCN1CCc2ccccc21  9.02%
13. O=c1c(Cl)c(NC2CC2)cnn1-c1ccccc1  6.9%
14. CCc1ccccc1NC(=O)CNCc1ccccc1.[O-][Cl+3]([O-])([O-])O  6.63%
15. O=C(C1=C(O)C(=O)N(Cc2ccco2)C1c1cccc([N+](=O)[O-])c1)c1ccco1 (stereo not shown)  5.7%
16. O=C(CCCc1ccccc1)Nc1ccccn1  5.69%
17. O=C1C=C(c2cccc3c2sc2ccccc23)C[C@@H](c2ccc(Cl)cc2)C1  4.76%
18. O=C(CSc1nc(-c2ccccc2)cc(=O)[nH]1)NCc1ccc2c(c1)OCO2  4.58%
19. CCCC(=O)N=C1SC2CS(=O)(=O)CC2N1c1ccc(-c2nc3ccc(C)cc3s2)cc1 (stereo not shown)  3.62%
20. Cc1ccc(-c2nn(CC(=O)Nc3cccnc3)c(=O)c3ccccc23)cc1  3.28%
21. CC1CN(C(=O)c2ccc(S(=O)(=O)Nc3ccccc3F)cc2)CC(C)O1 (stereo not shown)  2.88%
22. CCOC(=O)C1=C(C)N=C2SCCC(=O)N2C1c1sccc1C (stereo not shown)  2.53%
23. Cc1ccc(O)c(N=Cc2cccs2)c1  1.72%
24. COCCNC(=O)C12CC3CC(C1)CC(c1ccccc1)(C3)C2  0.464%
25. Cc1sc(NC(=O)c2cccs2)nc1-c1ccccc1  -0.37%
26. COc1ccc(NC(=O)Nc2nnc(N3CCC(C)CC3)s2)cc1OC  -0.885%
27. CCC(=O)Nc1ccc(Cl)c(NC(=O)C(C)C)c1  -0.902%
28. COCCN1Cc2cccc(C(=O)Nc3c(C)cccc3C)c2C1=O  -1.56%
29. COc1cc2nc(CN(C)Cc3nc4ccccc4c(=O)[nH]3)[nH]c(=O)c2cc1OC  -3.98%
30. CN(CC(=O)O/N=C(\N)c1ccccn1)S(=O)(=O)c1ccccc1  -4.98%
31. COc1cc(C2NC(=O)NC(O)(C(F)(F)F)C2C(=O)c2cccs2)ccc1O (stereo not shown)  -5.38%
32. CSCCC(NC(=O)c1ccccc1)C(=O)Nc1ccc(NC(C)=O)cc1 (stereo not shown)  -5.4%
33. Cc1ccc(C(=O)Nc2cccc(C(F)(F)F)c2)cc1NC(=O)c1cnnc2ccccc12  -5.9%
34. CC(C)CCSc1nc2[nH]ncc2c(=O)[nH]1  -7.22%
35. COC(=O)C1=C(N)Oc2cc(C)n(CC3CCCO3)c(=O)c2C1c1ccccc1OC (stereo not shown)  -7.79%
36. CCn1c(CCNC(=O)c2ccc(Cl)c(Cl)c2)nnc1SCCOc1ccc(OC)cc1  -8.77%
37. CCCn1c2ccccc2c2nnc(SCCN3CCOCC3)nc21  -9.15%
38. COc1cccc(/C=N/NC(=O)c2nc(-c3ccccc3)cc(-c3ccccc3)n2)c1O  -9.46%
39. COc1cccc(Nc2c(F)c(F)c(F)c(F)c2C(=O)O)c1  -10.2%
40. Cc1ccc(C2CC(c3ccc(C)cc3)n3nc(N)nc3N2)cc1 (stereo not shown)  -10.6%
41. C=CCn1c(SCc2c(C)noc2C)nc2sc(C)c(C)c2c1=O  -11.2%
42. O=C(c1cc2ccccc2oc1=O)N(Cc1ccccc1)C1CCS(=O)(=O)C1 (stereo not shown)  -12.2%
43. Cc1ccc(NC(=O)CS(=O)CC(=O)N(c2ccc(C)cc2)C(C)C(=O)NC2CCCCC2)cc1 (stereo not shown)  -14.1%
44. CC1(C)CC(=O)C2=C(C1)NC(=O)CC2c1cc2c(cc1Br)OCO2 (stereo not shown)  -14.8%
45. Cc1cc(C)cc(-n2c(C)cc(/C=N/NC(=O)c3ccncc3)c2C)c1  -15.2%
46. COc1ccc(-c2[nH]ncc2CN(C)C(C)c2ccon2)cc1F (stereo not shown)  -15.3%
47. COc1ccc(S(=O)(=O)N2CCN(C(=O)NC3CCCCC3)CC2)cc1OC  -17.7%
48. COc1ccc(S(=O)(=O)N2CCCC2CNC(=O)C(=O)NCc2cccs2)cc1 (stereo not shown)  -17.9%
49. COc1ccc(OC)c(-n2c(SCC(=O)Nc3cc(C)on3)nnc2-c2c[nH]c3ccccc23)c1  -19.6%
50. COCCNC(=O)CN(C(=O)Cn1nnc2ccccc21)c1cc(C)cc(C)c1  -22.4%
51. CCOc1ccc(S(=O)(=O)N2CCC(C(=O)OC(C)C(=O)N3CCOCC3)CC2)cc1 (stereo not shown)  -25.2%
52. CCn1nc(C)c(Br)c1-c1nc(CS(=O)(=O)c2ccc(F)cc2)no1  -42.6%
53. Cc1ccsc1C(=O)C1CCCN(Cc2cc(C(C)C)n[nH]2)C1 (stereo not shown)  -43.9%
54. COc1cc2nc(CN3CCN(S(=O)(=O)c4ccc(Cl)cc4)CC3)[nH]c(=O)c2cc1OC  -58.2%
55. CC1CCN(CCCn2c(SCC(=O)Nc3ccccc3Cl)nc3ccccc3c2=O)CC1  -70.8%
